This passage reports binding results from paper PMC7817025.

Protein sequences, listed by entry. Tags and fused reporters are not part of them.
UniProt P0C746: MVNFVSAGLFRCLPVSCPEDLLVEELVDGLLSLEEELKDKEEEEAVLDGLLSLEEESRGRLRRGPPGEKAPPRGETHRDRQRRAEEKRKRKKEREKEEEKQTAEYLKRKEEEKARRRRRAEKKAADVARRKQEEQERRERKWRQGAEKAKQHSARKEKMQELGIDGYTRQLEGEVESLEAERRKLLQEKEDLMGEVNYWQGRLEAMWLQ
UniProt Q15910: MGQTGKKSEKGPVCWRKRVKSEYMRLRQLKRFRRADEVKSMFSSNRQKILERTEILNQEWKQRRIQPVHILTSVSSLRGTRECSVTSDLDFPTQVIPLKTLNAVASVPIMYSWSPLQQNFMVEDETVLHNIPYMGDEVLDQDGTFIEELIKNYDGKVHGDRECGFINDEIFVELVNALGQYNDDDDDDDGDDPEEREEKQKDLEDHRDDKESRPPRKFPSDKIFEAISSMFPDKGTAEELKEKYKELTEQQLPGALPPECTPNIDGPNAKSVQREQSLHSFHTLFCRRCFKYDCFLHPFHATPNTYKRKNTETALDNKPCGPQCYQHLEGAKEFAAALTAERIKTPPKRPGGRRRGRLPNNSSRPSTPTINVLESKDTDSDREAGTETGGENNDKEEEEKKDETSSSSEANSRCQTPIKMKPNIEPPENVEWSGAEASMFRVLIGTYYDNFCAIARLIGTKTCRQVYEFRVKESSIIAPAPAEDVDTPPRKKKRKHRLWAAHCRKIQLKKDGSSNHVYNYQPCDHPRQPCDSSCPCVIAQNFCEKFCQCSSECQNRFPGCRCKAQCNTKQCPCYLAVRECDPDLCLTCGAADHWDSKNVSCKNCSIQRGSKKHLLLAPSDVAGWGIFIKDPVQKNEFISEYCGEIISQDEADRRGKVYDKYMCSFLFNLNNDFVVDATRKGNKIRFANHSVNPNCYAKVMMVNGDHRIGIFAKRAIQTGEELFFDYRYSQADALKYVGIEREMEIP
UniProt Q15022: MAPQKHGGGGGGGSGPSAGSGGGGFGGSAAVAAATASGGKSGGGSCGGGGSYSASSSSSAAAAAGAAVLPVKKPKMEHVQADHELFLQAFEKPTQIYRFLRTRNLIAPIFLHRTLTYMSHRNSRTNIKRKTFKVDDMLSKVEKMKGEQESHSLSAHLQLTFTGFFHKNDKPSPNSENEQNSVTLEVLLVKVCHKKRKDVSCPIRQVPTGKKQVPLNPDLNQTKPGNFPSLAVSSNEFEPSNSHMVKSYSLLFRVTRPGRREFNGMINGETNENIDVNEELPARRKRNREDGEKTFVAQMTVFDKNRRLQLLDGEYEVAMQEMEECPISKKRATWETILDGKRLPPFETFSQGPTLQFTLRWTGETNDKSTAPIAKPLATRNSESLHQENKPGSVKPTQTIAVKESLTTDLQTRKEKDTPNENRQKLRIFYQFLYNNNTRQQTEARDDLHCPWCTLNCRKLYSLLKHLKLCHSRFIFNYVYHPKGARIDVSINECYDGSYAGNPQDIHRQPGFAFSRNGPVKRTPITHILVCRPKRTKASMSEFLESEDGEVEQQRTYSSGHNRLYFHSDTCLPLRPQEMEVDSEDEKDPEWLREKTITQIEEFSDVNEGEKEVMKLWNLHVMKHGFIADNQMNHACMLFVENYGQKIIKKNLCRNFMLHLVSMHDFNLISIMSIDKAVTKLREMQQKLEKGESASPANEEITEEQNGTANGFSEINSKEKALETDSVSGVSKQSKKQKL

Results are given in words; binding and its absence hold for the method and conditions named. Binding seen in cells or lysates may run through a third protein. Some results given as binding are weak or reduced against the parent protein; the word gives no strength.

Experiment [1] has as its target HTLV-1 HBZ, Myc-His-tagged (pcDNA3.1-hbz-Myc-His), in HEK293T (Human T-cell leukemia virus type 1) (UniProt P0C746). The experiment is described as follows: co-IP; HEK293T transfected with Myc-HBZ, harvested 48 h post-transfection; nuclear extracts (10 mM Hepes pH 7.9, 150 mM NaCl, 5 mM MgCl2, 0.1% NP40), DNase I and RNase A treated; IP with mouse anti-c-myc-tag (9E10) overnight at 4°C, Dynabeads/Protein G; blotted against EZH2 and SUZ12.

The target in experiment [2] is endogenous HBZ of MT-1 cells (Human T-cell leukemia virus type 1 (endogenous in MT-1)) (UniProt P0C746). The experiment is described as follows: proximity ligation; Duolink in situ proximity ligation assay in MT-1 cells expressing endogenous HBZ; confocal microscopy.
For experiment [3], the target named is HTLV-1 HBZ, Myc-His-tagged (pcDNA3.1-hbz-Myc-His), in HeLa (Human T-cell leukemia virus type 1) (UniProt P0C746). In words: proximity ligation; Duolink in situ proximity ligation assay in HeLa cells transfected with HBZ; signal in the nucleus; confocal microscopy.
For experiment [4], the target named is enhancer of zeste homolog 2 (EZH2), endogenous in HEK293T (human (endogenous in HEK293T)) (UniProt Q15910). The experiment is described as follows: co-IP; as a1 but HEK293T co-transfected with Tax and HBZ expression plasmids; IP with anti-EZH2, blotted against EZH2 and Tax.
The target is the same in experiment [5]. In words: co-IP; HEK293T transfected with Tax, harvested 48 h post-transfection; nuclear extracts (10 mM Hepes pH 7.9, 150 mM NaCl, 5 mM MgCl2, 0.1% NP40), DNase I and RNase A treated; IP with rabbit anti-EZH2 overnight at 4°C, Dynabeads/Protein G; blotted against EZH2 and Tax.

Regarding “suppressor of zeste 12 homolog (SUZ12), endogenous in HEK293T (from UniProt Q15022 1-739)”, the binding result in experiment [1] was “binds”.

Turning to “suppressor of zeste 12 homolog (SUZ12), endogenous in MT-1 (from UniProt Q15022 1-739)”, the binding entry in experiment [2] is recorded as “binds”. As for “suppressor of zeste 12 homolog (SUZ12), endogenous in HeLa (from UniProt Q15022 1-739)”, in experiment [3], the binding entry is given as “binds”. As for “HTLV-1 Tax, His-tagged (pcDNA3.1-Tax-His) (from UniProt P03409 1-353)”, the binding result in experiment [4] is reported as “no binding (condition: with co-transfected HBZ)”; in experiment [5] it was “binds”.
